# According to the supplement of paper PMC9174493:
# This is one part of the list. Single values of this set are uncertain. Values with irradiation are relative to irradiated vehicle.
# Key:
# [1] = system: A549-Dual; assay: NF-kB reporter (SEAP) activity, viability-corrected, relative to vehicle (fold change vs vehicle); higher = more activation of STING-IRF / NF-kB immune response reporter; details: 10 µM
# [2] = system: A549-Dual; assay: ISRE reporter (Lucia luciferase) activity, viability-corrected, relative to vehicle (fold change vs vehicle); higher = more activation of STING-IRF / NF-kB immune response reporter; details: 10 µM
# 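Wherever NF-kB reporter (SEAP) activity, viability-corrected, relative to vehicle is given: viability correction based on the alamar blue assay, with concentrations leaving 10% survival or less dropped.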
Structure (SMILES),NF-kB reporter ([1]; irradiation: 8 Gy/4 fr),NF-kB reporter ([1]; irradiation: none),ISRE reporter ([2]; irradiation: 8 Gy/4 fr),ISRE reporter ([2]; irradiation: none)
COc1ccc(-c2oc3cc(OC)c(OC)c(O)c3c(=O)c2OC)cc1O [Casticin],0.561,1.46,0.134,0.933
CCCC(=O)OCOC(=O)C1=C(C)NC(C)=C(C(=O)OC)C1c1cccc(Cl)c1Cl (stereo not given) [Clevidipine Butyrate],0.709,0.943,0.776,0.857
CC(=O)OC1CC2CCC1(C)C2(C)C (stereo not given) [Bornyl acetate],0.774,1.02,0.731,0.844
CCC(CO)NCCNC(CC)CO.Cl.Cl (stereo not given) [Ethambutol 2HCl],1.02,1.01,1.09,0.889
COc1cc2nc(N3CCN(C(=O)C4CCCO4)CC3)nc(N)c2cc1OC.Cl (stereo not given) [Terazosin HCl],0.786,1.18,0.781,0.805
CC(C)CN(CC(OP(=O)([O-])[O-])C(Cc1ccccc1)NC(=O)OC1CCOC1)S(=O)(=O)c1ccc(N)cc1.[Ca+2] (stereo not given) [Fosamprenavir calcium salt],0.805,1.18,0.542,0.882
COCCOC(=O)C1=C(C)NC(C)=C(C(=O)OC/C=C/c2ccccc2)C1c1cccc([N+](=O)[O-])c1 (stereo not given) [Cilnidipine],0.52,0.834,0.595,0.772
COc1ccc(-c2coc3cc(O)ccc3c2=O)cc1 [Formononetin],0.487,0.524,0.394,0.355
c1c[nH]cn1 [Imidazole],0.715,0.705,0.739,0.463
CC1=CC(=O)c2ccccc2C1=O [Menadione],1.01,1.51,0.396,0.427
CSc1nc2cc(Oc3cccc(Cl)c3Cl)c(Cl)cc2[nH]1 [Triclabendazole],0.654,0.79,0.676,1.08
CC(=O)OCCC(C)CCC=C(C)C (stereo not given) [Citronellyl acetate],1.1,0.792,1.02,0.612
CCCCC/C=C\C/C=C\CCCCCCCC(=O)O [Linoleic acid],0.96,0.68,1.04,0.629
OCCOCCN1CCN(C2=Nc3ccccc3Sc3ccccc32)CC1 [Quetiapine],1.01,1.48,1.18,1.43
Cc1ncc(C[n+]2csc(CCO)c2C)c(N)n1.Cl.[Cl-] [Thiamine HCl (Vitamin B1)],0.77,0.851,0.838,0.774
Cc1ccc(C2OC(CO)C(O)C(O)C2O)cc1Cc1ccc(-c2ccc(F)cc2)s1.Cc1ccc(C2OC(CO)C(O)C(O)C2O)cc1Cc1ccc(-c2ccc(F)cc2)s1.O (stereo not given) [Canagliflozin hemihydrate],0.819,0.956,0.791,0.939
CCC(=O)c1c(O)cc(O)cc1O [Flopropione],0.541,1.01,0.369,0.402
O=c1c(O)c(-c2ccc(O)cc2O)oc2cc(O)cc(O)c12 [Morin],0.423,0.579,0.273,0.332
CCCCCCCC/C=C\CCCCCCCC(=O)O [Oleic Acid],0.89,0.769,0.83,0.924
O=C(NC(CO)C(O)c1ccc([N+](=O)[O-])cc1)C(Cl)Cl (stereo not given) [Chloramphenicol],1.05,1.14,0.973,0.898
OCC(O)C(O)C(OC1OC(CO)C(O)C(O)C1O)C(O)CO (stereo not given) [Maltitol],0.892,0.69,0.813,0.57
CCOC(CN1CCN(CC(C)C(=O)c2ccccc2)CC1)c1ccccc1.Cl.Cl (stereo not given) [Eprazinone 2HCl],0.9,1.41,0.896,0.877
COc1cc(N)c(Cl)cc1C(=O)NC1CCN(CCCOc2ccc(F)cc2)CC1OC (stereo not given) [Cisapride],0.945,1.33,0.671,0.735
C/C=C/c1ccc(O)c(OC)c1 [Isoeugenol],1.16,0.439,0.989,0.414
Cc1ccc2c(Cl)cc(Cl)c(O)c2n1 [Chlorquinaldol],0.295,0.551,0.356,1.57

Structure (SMILES),NF-kB reporter ([1]; irradiation: 8 Gy/4 fr),NF-kB reporter ([1]; irradiation: none),ISRE reporter ([2]; irradiation: 8 Gy/4 fr),ISRE reporter ([2]; irradiation: none)
CN(C)c1ccc(O)c2c1CC1CC3C(N(C)C)C(O)=C(C(N)=O)C(=O)C3(O)C(O)=C1C2=O.Cl (stereo not given) [Minocycline HCl],0.922,0.854,0.742,1
CCC1OC(=O)C(C)C(OC2CC(C)(OC)C(O)C(C)O2)C(C)C(OC2OC(C)CC(N(C)C)C2O)C(C)(O)CC(C)CN(C)C(C)C(O)C1(C)O.O.O (stereo not given) [Azithromycin Dihydrate],0.567,0.932,0.783,1.2
C#CC1(O)CCC2C3CCC4=CC(=O)CCC4C3CCC21C (stereo not given) [Norethindrone],0.814,1.1,0.826,0.997
OC1COC(O)C(O)C1O (stereo not drawn) [D(-)-Arabinose],0.814,0.841,0.718,0.56
CC(=O)CCCCn1c(=O)c2c(ncn2C)n(C)c1=O [Pentoxifylline],1.07,1.01,0.938,0.648
C(=C\c1ccccc1)/CN1CCN(C(c2ccccc2)c2ccccc2)CC1 [Cinnarizine],0.735,1.23,0.629,0.974
CCC(C)C1NC(=O)C(CCCNC(=N)N)NC(=O)C(CC(=O)O)NC(=O)C(CCSC)NC(=O)C(CCCNC(=N)N)NC(=O)CNC(=O)CNC(=O)C(Cc2ccccc2)NC(=O)C(NC(=O)C(CO)NC(=O)C(CO)NNC(CCCNC(=N)N)C(=O)NC(CCCNC(=N)N)C(=O)C(=O)C(CC(C)C)NNC(C=O)CO)CSSCC(C(=O)NC(CC(N)=O)C(=O)NC(CO)C(=O)NC(Cc2ccccc2)C(=O)C(=O)C(CCCNC(=N)N)NC(=O)C(Cc2ccc(O)cc2)NO)NC(=O)CNC(=O)C(CC(C)C)NC(=O)CNC(=O)C(CO)NC(=O)C(CCC(N)=O)NC(=O)C(C)NC(=O)CNC1=O (stereo not given) [Carperitide Acetate],1.23,0.689,1.28,0.719
CCCc1cc(C(N)=S)ccn1 [Protionamide],0.708,0.991,0.689,0.712
CC(=O)OC/C=C(\C)CCC=C(C)C [Geranyl acetate],1.11,0.943,1.14,0.697
COc1cccc(CCc2ccccc2OCC(CN(C)C)OC(=O)CCC(=O)O)c1.Cl (stereo not given) [Sarpogrelate hydrochloride],0.521,0.745,0.522,0.624
CCNC(=O)CCC/C=C\CC1C(O)CC(O)C1/C=C/C(O)CCc1ccccc1 (stereo not given) [Bimatoprost],0.85,0.624,0.867,0.715
CC(C)c1c(C(=O)Nc2ccccc2)c(-c2ccccc2)c(-c2ccc(F)cc2)n1CCC(O)CC(O)CC(=O)O (stereo not given) [atorvastatin],0.726,0.999,0.72,0.948
COC(=O)C1C(C)C(OC)/C=C/OC2(C)Oc3c(C)c(O)c4c(O)c(cc([O-])c4c3C2=O)NC(=O)/C(C)=C\C=C\C(C)C(O)C(C)C(O)C1C.[Na+] (stereo not given) [Rifamycin sodium salt],1.6,1.17,1.08,1.01
O=C([O-])c1ccccn1.O=C([O-])c1ccccn1.O=C([O-])c1ccccn1.[Cr+3] [Chromium picolinate],0.86,0.952,0.755,0.807
CCn1cc(C(=O)O)c(=O)c2cc(F)c(N3CCNCC3)cc21 [Norfloxacin],0.732,0.854,0.677,0.862
CN1CCC(=C2c3ccccc3C=Cc3ccccc32)CC1.Cl [Cyproheptadine HCl],0.752,0.947,0.776,0.91
Cc1cc(O)cc(O)c1 [Orcinol],1,0.921,0.991,0.975
"CC1(C)C2CCC1(C)C(O)C2 (single isomer, unassigned; (-)) [(-)-Borneol]",0.69,0.587,0.623,0.436
CC(C)c1c(C(=O)Nc2ccccc2)c(-c2ccccc2)c(-c2ccc(F)cc2)n1CCC(O)CC(O)CC(=O)[O-].CC(C)c1c(C(=O)Nc2ccccc2)c(-c2ccccc2)c(-c2ccc(F)cc2)n1CCC(O)CC(O)CC(=O)[O-].[Ca+2] (stereo not given) [Atorvastatin Calcium],0.762,1.25,0.414,1.14
NS(=O)(=O)c1cc2c(cc1C(F)(F)F)NCNS2(=O)=O [Hydroflumethiazide],0.651,0.705,0.628,0.568
Nc1ccc(S(=O)(=O)Nc2nccs2)cc1 [Sulfathiazole],1.17,0.95,1.3,0.867
Nc1ccc(S(=O)(=O)Nc2ccccn2)cc1 [Sulfapyridine],0.764,0.824,0.795,1.06
CC(=O)CC/C=C(\C)CC/C=C(\C)CC/C=C(\C)CCC=C(C)C [Teprenone],0.612,0.736,0.494,0.439
Oc1ccc(Cl)c2cccnc12 [Cloxiquine],0.957,1.37,0.153,0.313
O.O.O=c1c(O)c(-c2ccc(O)c(O)c2)oc2cc(O)cc(O)c12 [Quercetin Dihydrate],0.812,0.698,0.426,0.369
